# Data: the supplement of paper PMC10126150
# Sequences with one replicate were seen in a single cluster, so their values are uncertain.
# Tested on: ATP
# Test: switch fluorescence ratio, 500 uM ATP over buffer (Cy3 cluster intensity, sum of 5 cycles each) (fold (ratio)); higher = stronger signal-on switching upon ATP binding; sequences stand for … in TCGTCGGCAGCGTCAGATGTGTATAAGAGACAGTTTTTTTTTTTTTTTTTTTTTTTTT…TC
# Conditions: aptamer strand: ATP DNA aptamer (quencher-CACCTGGGGGAGTATTGCGGAGGAAGG + anchor), 100 nM annealed; ATP concentration: 500 uM; one replicate
# Procedure, shortened: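 Clusters with intensities outside 100-1000 RFU were excluded. The remaining Cy3-labelled switching-strand clusters on a modified Illumina MiSeq flow-cell had been annealed to 100 nM quencher-labelled ATP aptamer and imaged in selection buffer, then after 15 min with 500 uM ATP at 22 °C, for five cycles separated by NaOH stripping and re-annealing. The fluorescence ratio, averaged per switch-domain sequence, is each cluster's summed target-cycle Cy3 intensity over its summed buffer-cycle Cy3 intensity.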
# 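Also: ATP exposure 15 min at 22 °C before imaging.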
row,Sequence,switch fluorescence ratio
1,CCAGGAGGG,1.03
2,CCAGGCACCA,1.07
3,CCAGGCCTAC,1.31
4,CCAGGCGCG,0.995
5,CCAGGCGGGT,0.98
6,CCAGGGACGT,0.977
7,CCAGGGCACG,0.977
8,CCAGGTAGTC,1.48
9,CCAGGTGAAG,2.51
10,CCAGTAAAAG,0.987
11,CCAGTACAAG,1.05
12,CCAGTAGGGG,1.03
13,CCAGTAGGTT,0.994
14,CCAGTATCTT,0.974
15,CCAGTATTGG,1.05
16,CCAGTCGGCA,1.03
17,CCAGTGGAG,0.989
18,CCAGTGGCC,1.01
19,CCAGTTTTGT,1.01
20,CCATAATGCA,1.04
21,CCATAGCGGG,1.17
22,CCATCATAAG,1.01
23,CCATCCCTCG,1.04
24,CCATCCTTGA,0.976
25,CCATCCTTGG,1.05
26,CCATCCTTTT,1.44

row,Sequence,switch fluorescence ratio
1,CCATCTCGGC,1.02
2,CCATCTGGTG,2.74
3,CCATGAACCT,2.05
4,CCATGAATGT,1.03
5,CCATGCATAC,3.09
6,CCATGGGTCT,1
7,CCATGGTGCT,1.58
8,CCATGTTGAC,0.977
9,CCATTCATAT,1.03
10,CCATTCGTCT,1.01
11,CCATTGCGTA,1.06
12,CCATTGTATT,0.992
13,CCATTTAGAT,1.03
14,CCATTTCTT,1.06
15,CCATTTGGC,0.947
16,CCATTTGGGC,0.906
17,CCCAAATGCG,1.06
18,CCCAATGGAC,1.43
19,CCCACCGG,1.06
20,CCCACCGGCA,1.24
21,CCCACTGCGG,1.13
22,CCCAGATCTT,1.02
23,CCCAGATTTA,1.02
24,CCCAGCGGAG,1.02
25,CCCAGGCGAC,1.36
26,CCCATCCCGC,1.51

row,Sequence,switch fluorescence ratio
1,CCCATTAAAT,0.971
2,CCCCAACAGA,1.08
3,CCCCAACGC,1.75
4,CCCCAGCTC,1.92
5,CCCCATCTGG,1.09
6,CCCCATGCAT,1.56
7,CCCCCATAAG,1.6
8,CCCCCCAACC,1.86
9,CCCCCCAATT,1.9
10,CCCCGATCGT,1.01
11,CCCCGGCGCT,1.4
12,CCCCTACATC,1.09
13,CCCCTACGTG,2.18
14,CCCCTAGGGA,1.09
15,CCCCTATGTT,1.03
16,CCCCTCATGA,1
17,CCCCTCGAGT,1
18,CCCCTCGCTT,1.63
19,CCCCTCTGGG,1
20,CCCCTGCCTA,1.16
21,CCCCTGGAGA,1.05
22,CCCCTGGATC,1.06
23,CCCCTGTTTC,1.1
24,CCCCTTCACG,1.14
25,CCCGAACGGT,0.99
26,CCCGAACTGT,0.973

row,Sequence,switch fluorescence ratio
1,CCCGACATGT,1.03
2,CCCGACTCGG,0.972
3,CCCGATATAA,1.12
4,CCCGATTCCC,1.11
5,CCCGCGATGC,1.23
6,CCCGCGGATG,1.14
7,CCCGGAAGTC,1.38
8,CCCGGAATTT,1.17
9,CCCGGGAAGG,0.981
10,CCCGGGCCAG,1.06
11,CCCGGGGCGT,1.06
12,CCCGGTATGA,1.05
13,CCCGGTCCCA,1.02
14,CCCGTTAGCA,1.13
15,CCCGTTGACT,1.11
16,CCCTAGGATA,1.02
17,CCCTAGGCAT,1.21
18,CCCTATAGTT,1.04
19,CCCTCGATTT,1.02
20,CCCTCTGATA,1.19
21,CCCTCTGTGT,1.36
22,CCCTGACGAT,2.17
23,CCCTGCGGTC,2.62
24,CCCTGGGGG,1.15
25,CCCTGTCTGC,1.03
26,CCCTGTGTTT,1.04

row,Sequence,switch fluorescence ratio
1,CCCTTGCGCG,1.01
2,CCCTTGCTTG,1.03
3,CCCTTGGGAG,0.995
4,CCGAAATGCG,3.56
5,CCGAAATTCG,1.49
6,CCGAACATCG,1.11
7,CCGAACTGGG,1.04
8,CCGAAGGGAC,1.78
9,CCGAATATGT,1.02
10,CCGAATATTC,1.48
11,CCGAATCCCT,1.04
12,CCGAATTCGG,1
13,CCGAATTCGT,0.981
14,CCGACTGGTG,1.8
15,CCGAGAGTTA,1.18
16,CCGAGATCTG,1.06
17,CCGAGGTTTG,1.19
18,CCGAGTAACG,1.2
19,CCGAGTCGTA,1.09
20,CCGATAAGC,2.66
21,CCGATAATG,1.17
22,CCGATACAAG,2.82
23,CCGATAGTTC,1.49
24,CCGATCCATT,1.33
25,CCGATGACTT,1.2
26,CCGATTTGGA,1.02

row,Sequence,switch fluorescence ratio
1,CCGCAGGTGG,1.23
2,CCGCAGTCCC,3.42
3,CCGCCCCCTT,1.11
4,CCGCCGTTTG,1.38
5,CCGCGAGGGA,1.08
6,CCGCGCTAGG,1.57
7,CCGCTGCTCG,2.8
8,CCGCTTATCA,1.36
9,CCGGAACTTT,1.06
10,CCGGACCTCG,0.992
11,CCGGAGGCGT,1.17
12,CCGGAGGTCT,1.18
13,CCGGAGTCTT,4.08
14,CCGGAGTGTG,1.88
15,CCGGATAGGG,1.04
16,CCGGCAACAA,4.46
17,CCGGCATCAA,2.38
18,CCGGCGATTC,3.86
19,CCGGCGATTG,1.05
20,CCGGCGGACG,1.02
21,CCGGCGGT,1.03
22,CCGGCGTCGG,1.06
23,CCGGCGTGCT,1.06
24,CCGGCGTTTT,1.08
25,CCGGCTAGC,1.02
26,CCGGCTGCCT,1.09

row,Sequence,switch fluorescence ratio
1,CCGGCTGTCT,1.07
2,CCGGCTTGGT,1.03
3,CCGGGATTTA,0.969
4,CCGGGCCCTT,1.02
5,CCGGGGAGCT,1.13
6,CCGGGGCCAG,0.957
7,CCGGGGTGCG,1.08
8,CCGGGTCATA,1.1
9,CCGGTAAAGA,1
10,CCGGTACATC,1.28
11,CCGGTACTC,3.83
12,CCGGTAGGGG,1.05
13,CCGGTCAGGT,1.11
14,CCGGTGAGTG,0.998
15,CCGGTGTAGC,1.01
16,CCGGTTCT,1
17,CCGGTTGGTT,0.984
18,CCGTAAATTT,1.08
19,CCGTAACCAC,2.92
20,CCGTACCGTG,1.09
21,CCGTAGGTC,1.12
22,CCGTATTTTG,1.05
23,CCGTCAGAA,1.24
24,CCGTCCCAGT,1.86
25,CCGTCGTAAC,3.42
26,CCGTCTGTGG,1.02

row,Sequence,switch fluorescence ratio
1,CCGTGATAAC,6.13
2,CCGTGATCA,1.1
3,CCGTGCCTGT,1.04
4,CCGTGCCTTC,1.16
5,CCGTGGCACG,1.03
6,CCGTGGTTAG,1.07
7,CCGTGTGTAT,1.03
8,CCGTGTTTAA,1.11
9,CCGTTAAGGG,0.976
10,CCGTTAGCGT,1.65
11,CCGTTCAAT,3.99
12,CCGTTCCGG,0.962
13,CCGTTCGTTG,1.01
14,CCGTTCTAGC,1.18
15,CCGTTGCAG,1.18
16,CCGTTGCCTA,1.05
17,CCGTTGTGTG,1.02
18,CCGTTTAGCT,1.09
19,CCTAAGCGAG,1.9
